# Some of the results follow.
# B1: HA-11100 (Pseudomonas aeruginosa), Q02G51_PSEAB (protein)
# chain: QFNPNEIKISQQGKTTLIDQSTQRAIINWKGFDVSADEAVRFNQPGVTSSTLNRVTAGQESVIAGRISAPGQVIIYNSNGVVFSGSAKVDVGSLITTTANISDEHFRQGKLIFDQPGNPDARIVNDGSISVAEKGLAAFVAPSVANNGVINARLGTVAMAAGNAATIDLYG
# Assays:
# Experiment in all cases: glycan array binding signal (z-score within array); higher = stronger binding
# Details in all cases: glycan notation: IUPAC condensed, linker removed
# Fuc(a1-2)Gal = target: Fuc(a1-2)Gal
# Outline: (§1)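 Glycan array data were curated from 3228 arrays in the Consortium for Functional Glycomics database and kept only where the protein sequence was available. Glycan names were converted to IUPAC-condensed notation, and columns mapping to the same glycan were averaged. The binding signal is a within-array Z-score, averaged across arrays of the same protein sequence at different concentrations or buffers and across linkers. Negative Z-scores can be read as non-binding.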
# Fuc(a1-2)Gal(b1-3)GalNAc = target: Fuc(a1-2)Gal(b1-3)GalNAc
# Outline: as §1
# [1] = target: Fuc(a1-2)Gal(b1-3)GalNAc(a1-3)[Fuc(a1-2)]Gal(b1-4)Glc
# Outline: as §1
# [2] = target: Fuc(a1-2)Gal(b1-3)GalNAc(a1-3)[Fuc(a1-2)]Gal(b1-4)GlcNAc
# Outline: as §1
# [3] = target: Fuc(a1-2)Gal(b1-3)GalNAc(b1-3)Gal
# Outline: as §1
# [4] = target: Fuc(a1-2)Gal(b1-3)GalNAc(b1-3)Gal(a1-4)Gal(b1-4)Glc
# Outline: as §1
# [5] = target: Fuc(a1-2)Gal(b1-3)GalNAc(b1-4)[Neu5Ac(a2-3)]Gal(b1-4)Glc
# Outline: as §1
# Fuc(a1-2)Gal(b1-3)GlcNAc = target: Fuc(a1-2)Gal(b1-3)GlcNAc
# Outline: as §1
# [6] = target: Fuc(a1-2)Gal(b1-3)GlcNAc(b1-2)Man(a1-3)[Fuc(a1-2)Gal(b1-3)GlcNAc(b1-2)Man(a1-6)]Man(b1-4)GlcNAc(b1-4)GlcNAc
# Outline: as §1
# [7] = target: Fuc(a1-2)Gal(b1-3)GlcNAc(b1-2)Man(a1-3)[Fuc(a1-2)Gal(b1-3)GlcNAc(b1-2)Man(a1-6)]Man(b1-4)GlcNAc(b1-4)[Fuc(a1-6)]GlcNAc
# Outline: as §1
# [8] = target: Fuc(a1-2)Gal(b1-3)GlcNAc(b1-3)Gal(b1-4)Glc
# Outline: as §1
# [9] = target: Fuc(a1-2)Gal(b1-3)GlcNAc(b1-3)GalNAc
# Outline: as §1
# [10] = target: Fuc(a1-2)Gal(b1-3)GlcNAc(b1-3)[Fuc(a1-2)Gal(b1-3)GlcNAc(b1-6)]GalNAc
# Outline: as §1
# [11] = target: Fuc(a1-2)Gal(b1-3)GlcNAc(b1-3)[Gal(b1-4)GlcNAc(b1-6)]Gal(b1-4)Glc
# Outline: as §1
# [12] = target: Fuc(a1-2)Gal(b1-3)GlcNAc(b1-3)[Neu5Ac(a2-6)Gal(b1-4)GlcNAc(b1-6)]Gal(b1-4)Glc
# Outline: as §1
# [13] = target: Fuc(a1-2)Gal(b1-3)GlcNAc6S
# Outline: as §1
# [14] = target: Fuc(a1-2)Gal(b1-3)[Fuc(a1-4)]GlcNAc
# Outline: as §1
# [15] = target: Fuc(a1-2)Gal(b1-3)[Fuc(a1-4)]GlcNAc(b1-2)Man(a1-3)[Fuc(a1-2)Gal(b1-3)[Fuc(a1-4)]GlcNAc(b1-2)Man(a1-3)]Man(b1-4)GlcNAc(b1-4)GlcNAc
# Outline: as §1
# [16] = target: Fuc(a1-2)Gal(b1-3)[Fuc(a1-4)]GlcNAc(b1-2)Man(a1-3)[Fuc(a1-2)Gal(b1-3)[Fuc(a1-4)]GlcNAc(b1-2)Man(a1-6)]Man(b1-4)GlcNAc(b1-4)[Fuc(a1-6)]GlcNAc(b1-4)[Fuc(a1-6)]GlcNAc
# Outline: as §1
# [17] = target: Fuc(a1-2)Gal(b1-3)[Fuc(a1-4)]GlcNAc(b1-3)[Fuc(a1-3)[Gal(b1-4)]GlcNAc(b1-6)]Gal(b1-4)Glc
# Outline: as §1
# [18] = target: Fuc(a1-2)Gal(b1-3)[Fuc(a1-4)]GlcNAc(b1-3)[Gal(b1-4)GlcNAc(b1-6)]Gal(b1-4)Glc
# Outline: as §1
# [19] = target: Fuc(a1-2)Gal(b1-4)Fuc(a1-3)]GlcNAc(b1-2)Man(a1-3)[Fuc(a1-2)Gal(b1-4)[Fuc(a1-3)]GlcNAc(b1-2)Man(a1-6)]Man(b1-4)GlcNAc(b1-4)GlcNAc
# Outline: as §1
# Fuc(a1-2)Gal(b1-4)Glc = target: Fuc(a1-2)Gal(b1-4)Glc
# Outline: as §1
# Fuc(a1-2)Gal(b1-4)Glc6S = target: Fuc(a1-2)Gal(b1-4)Glc6S
# Outline: as §1
# Fuc(a1-2)Gal(b1-4)GlcNAc = target: Fuc(a1-2)Gal(b1-4)GlcNAc
# Outline: as §1
# [20] = target: Fuc(a1-2)Gal(b1-4)GlcNAc(b1-2)Man
# Outline: as §1
# [21] = target: Fuc(a1-2)Gal(b1-4)GlcNAc(b1-2)Man(a1-3)[Fuc(a1-2)Gal(b1-4)GlcNAc(b1-2)Man(a1-6)]Man(b1-4)GlcNAc(b1-4)GlcNAc
# Outline: as §1
# [22] = target: Fuc(a1-2)Gal(b1-4)GlcNAc(b1-2)Man(a1-3)[Fuc(a1-2)Gal(b1-4)GlcNAc(b1-2)Man(a1-6)]Man(b1-4)GlcNAc(b1-4)[Fuc(a1-6)]GlcNAc
# Outline: as §1
# [23] = target: Fuc(a1-2)Gal(b1-4)GlcNAc(b1-2)[Fuc(a1-2)Gal(b1-4)GlcNAc(b1-4)]Man(a1-3)[Fuc(a1-2)Gal(b1-4)GlcNAc(b1-2)Man(a1-6)]Man(b1-4)GlcNAc(b1-4)GlcNAc
# Outline: as §1
# [24] = target: Fuc(a1-2)Gal(b1-4)GlcNAc(b1-3)Gal(b1-4)GlcNAc
# Outline: as §1
binder,measurement,setting,value
B1,glycan array binding signal (z-score),Fuc(a1-2)Gal,-0.09
same,glycan array binding signal (z-score),Fuc(a1-2)Gal(b1-3)GalNAc,0.01
same,glycan array binding signal (z-score),[1],-0.114
same,glycan array binding signal (z-score),[2],-0.287
same,glycan array binding signal (z-score),[3],-0.455
same,glycan array binding signal (z-score),[4],-0.179
same,glycan array binding signal (z-score),[5],-0.317
same,glycan array binding signal (z-score),Fuc(a1-2)Gal(b1-3)GlcNAc,-0.382
same,glycan array binding signal (z-score),[6],1.22
same,glycan array binding signal (z-score),[7],0.041
same,glycan array binding signal (z-score),[8],-0.309
same,glycan array binding signal (z-score),[9],-0.105
same,glycan array binding signal (z-score),[10],-0.549
same,glycan array binding signal (z-score),[11],-0.317
same,glycan array binding signal (z-score),[12],-0.222
same,glycan array binding signal (z-score),[13],-0.294
same,glycan array binding signal (z-score),[14],-0.341
same,glycan array binding signal (z-score),[15],-0.244
same,glycan array binding signal (z-score),[16],0.052
same,glycan array binding signal (z-score),[17],-0.356
same,glycan array binding signal (z-score),[18],-0.013
same,glycan array binding signal (z-score),[19],3.58
same,glycan array binding signal (z-score),Fuc(a1-2)Gal(b1-4)Glc,-0.41
same,glycan array binding signal (z-score),Fuc(a1-2)Gal(b1-4)Glc6S,-0.32
same,glycan array binding signal (z-score),Fuc(a1-2)Gal(b1-4)GlcNAc,0.026
same,glycan array binding signal (z-score),[20],-0.095
same,glycan array binding signal (z-score),[21],1.66
same,glycan array binding signal (z-score),[22],-0.357
same,glycan array binding signal (z-score),[23],0.009
same,glycan array binding signal (z-score),[24],-0.247
